This is one part of the list.
test system: T1, C. trachomatis L2/434/Bu expressing GFP (CTL2-GFP); design: species or system HeLa; C. trachomatis total inclusion area by high-content imaging, normalised to DMSO; conditions: total inclusion area; 28.5 h, 10 µM; inhibitor
T1 construct: L2/434/Bu GFP intracellular growth in HeLa cells
Description: In this process, we also complemented the assay described above with an imaging-based readout (Fig 1B). After measurements of bulk GFP and resorufin fluorescence, cells were fixed, stained with the DNA dye Hoechst, and imaged at a high-content imaging platform to detect chlamydial inclusions (GFP) and host cell nuclei (Hoechst). The total area and number of inclusions in individual wells and the number of nuclei then served as additional proxies for chlamydial growth and host cell viability. […] MICs were calculated as described above.

Row | SMILES | % of control remaining
1 | COc1ccccc1NC(=O)C1CCN(C(=O)OC(C)(C)C)CC1 [CBK296746] | 102.658
2 | CC(C)(C)c1ccc(C(=O)N2CCC(C(=O)O)CC2)cc1 [CBK286949] | 84.0584
3 | Cc1ccn2c(CN3CCCC(Cn4ccnc4C)C3)c(C)nc2c1 (centres unmarked) [CBK281964] | 58.8211
4 | COc1ccc(CC(=O)Nc2cccc(-c3cn4ccc(C)cc4n3)c2)cc1OC [CBK269148] | 123.564
5 | Cc1cc(S(=O)(=O)N(C)CCC#N)c(C)cc1Cl [CBK043787] | 92.5966
6 | O=C(c1cscn1)N1CCN(CCc2ccccc2)CC1 [CBK200230] | 98.5452
7 | CSC(C)C(=O)N(C)C1CCN(c2ncnc3ccccc23)CC1 (centres unmarked) [CBK305300] | 61.0314
8 | Cc1n[nH]c(C)c1C12CC3CC(CC(CC(=O)O)(C3)C1)C2 [CBK288241] | 98.375
9 | CCCCSc1nc(N)cc(N2CCC(C(=O)N3CCOCC3)CC2)n1 [CBK306619] | 82.4374
10 | CC(C)Nc1cncc(OC2CCOC2)n1 (centres unmarked) [CBK115882] | 121.743
11 | Cc1cccc(-c2nnc(SCC3CC3)n2CC2CCCCC2)c1 [CBK085423] | 96.495
12 | CCOC(=O)c1c(N)n(-c2cccc(C(F)(F)F)c2)c2nc3ccccc3nc12 [CBK264977] | 96.1461
13 | CCCn1nnc(NCc2ccc(Cl)cc2)n1 [CBK288089] | 88.9338
14 | COc1ccc(S(=O)(=O)N(Cc2c(F)cccc2F)C2CCN(C)CC2)cc1 [CBK161910T] | 59.2364
15 | CC(=O)N1CCc2cc(-c3cc4c(C)cccn4c3)ccc21 [CBK285225] | 110.806
16 | COc1cc(-c2cncc(NCc3ccncc3)n2)cc(OC)c1OC [CBK065263] | 108.602
17 | O=C(CCC(=O)Nc1ccc(I)cc1)N/N=C/c1ccc(Br)cc1 [CBK262010] | 98.5658
18 | Cn1cc(C2CCCCCN2C(=O)c2ccccc2F)cn1 (centres unmarked) [CBK285119] | 78.0241
19 | COc1ccc2cc(COC(=O)c3ccc([S+](C)[O-])cc3)c(Cl)nc2c1 (centres unmarked) [CBK298267] | 92.1954
20 | CC(NC(=O)Cc1ccc(F)cc1)c1nc2cccnc2n1C(C)C (centres unmarked) [CBK283830] | 97.5204
21 | Cc1ccc(NC(=O)Cc2ccc(N(C)C)cc2)c(C)n1 [CBK200295] | 119.248
22 | CCCCNc1cc(N2CCOC(Cn3cc(C)cn3)C2)nc(N)n1 (centres unmarked) [CBK305417] | 2.719
23 | CC(C)OC(=O)Cn1c(C2CCCNC2)cc2cccnc21 (centres unmarked) [CBK285058] | 81.7933

From publication PMC12040169 (PLOS Biology, 2025)
